Measured values reported in the supplement of paper PMC4967469.
By IC50 is meant the dose at which the fit gives 50% viability; fits outside the tested doses are given as limits. For AUC the same curve is integrated over the 256-fold range of doses and scaled to a fraction; it is 1 without any effect and falls as sensitivity rises. For part of these data: A top dose marked as inferred comes from the curve model; the source does not state it. For part of these data: Where an entry number is given, a second screen of the drug exists; the two often differ.

What was measured:
Test in all cases: Viability of human cancer cell lines after 72 h of drug (GDSC screen)
[1] = compound: Cc1sc2c(c1C)C(c1ccc(Cl)cc1)=N[C@@H](CC(=O)OC(C)(C)C)c1nnc(C)n1-2 [JQ1]
Description: (§1)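 Human cancer cell lines in 384-well plates, medium with 10% serum, drug for 72 h over a 256-fold dose range (nine 2-fold or five 4-fold steps up to the top dose). Adherent lines were fixed and stained with the nucleic acid dye Syto60, suspension lines read with resazurin; signal relative to control wells, capped at 0 and 100%. One two-parameter sigmoid per drug and line, fitted in a mixed model over all curves with the slope shared within a line.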

[2] = compound: Cc1ccc(C(=O)N(CCCN)[C@@H](c2nc3cc(Cl)ccc3c(=O)n2Cc2ccccc2)C(C)C)cc1 [SB-715992]; details: top dose 0.128 µM; top dose inferred
Description: as §1

[3] = compound: COC(=O)[C@H](CCSC)NC(=O)c1ccc(NC[C@@H](N)CS)cc1-c1ccccc1 [FTI-277]; details: top dose 1.024 µM; top dose inferred
Description: as §1

[4] = compound: CN1CCN(c2ccc([N+](=O)[O-])c3no[n+]([O-])c23)CC1 [NSC-207895]; details: top dose 20 µM; top dose inferred
Description: as §1

[5] = compound: CCOc1nc(NC(=O)Cc2cc(OC)ccc2OC)cc(N)c1C#N [JNK Inhibitor VIII]; details: top dose 10 µM; top dose inferred
Description: as §1

[6] = compound: CC1(C)CNc2cc(NC(=O)c3cccnc3NCc3ccncc3)ccc21 [AMG-706]; details: top dose 2 µM; top dose inferred
Description: as §1

[7] = compound: c1ccc2c(CCNc3ccc(Nc4ccncc4)cc3)c[nH]c2c1 [JNJ-26854165]; details: top dose 10 µM
Description: as §1

[8] = compound: C[C@]1(O)C[C@@H](c2nc(-c3ccc4ccc(-c5ccccc5)nc4c3)c3c(N)nccn32)C1 [OSI-906]; details: top dose 2.56 µM; top dose inferred
Description: as §1

[9] = compound: COCC[n+]1c2c(n(Cc3cnccn3)c1C)C(=O)c1ccccc1C2=O [YM155]; details: top dose 5.12 µM
Description: as §1

[10] = compound: O=C(/C=C/c1cccc(S(=O)(=O)Nc2ccccc2)c1)NO [Belinostat]; details: top dose 20 µM; top dose inferred
Description: as §1

[11] = top dose 1 µM, screen: GDSC drug entry 1218, top dose inferred
[12] = top dose 2.56 µM, screen: GDSC drug entry 163

**Q.** Which AUC [1, 11] does the source give for “NCI-H650 (lung adenocarcinoma, adherent)” here?
**A.** 0.982

**Q.** What about the IC50 [1, 11] of the same cell line?
**A.** > 1000 nM

**Q.** What about the AUC [1, 12] of the same cell line?
**A.** 0.89

**Q.** And the IC50 [1, 12]?
**A.** > 2560 nM

**Q.** And the AUC [2]?
**A.** 0.851

**Q.** What about the IC50 [2] of the same cell line?
**A.** 114 nM

**Q.** And the AUC [3]?
**A.** 0.984

**Q.** What about the IC50 [3] of the same cell line?
**A.** > 1020 nM

**Q.** What about the AUC [4] of the same cell line?
**A.** 0.94

**Q.** What about the IC50 [4] of the same cell line?
**A.** > 20000 nM

**Q.** And the AUC [5]?
**A.** 0.986

**Q.** What about the IC50 [5] of the same cell line?
**A.** > 10000 nM

**Q.** And the AUC [6]?
**A.** 0.973

**Q.** What about the IC50 [6] of the same cell line?
**A.** > 2000 nM

**Q.** And the AUC [7]?
**A.** 0.977

**Q.** And the IC50 [7]?
**A.** > 10000 nM

**Q.** And the AUC [8]?
**A.** 0.949

**Q.** And the IC50 [8]?
**A.** > 2560 nM

**Q.** And the AUC [9]?
**A.** 0.046

**Q.** And the IC50 [9]?
**A.** < 20 nM

**Q.** And the AUC [10]?
**A.** 0.497

**Q.** What about the IC50 [10] of the same cell line?
**A.** 1230 nM

**Q.** Which results are given for NCI-H727 (lung carcinoid, adherent)?
**A.** AUC [1, 11]: 0.945; IC50 [1, 11]: > 1000 nM; AUC [1, 12]: 0.63; IC50 [1, 12]: 463 nM; AUC [2]: 0.955; IC50 [2]: > 128 nM; AUC [3]: 0.973; IC50 [3]: > 1020 nM; AUC [4]: 0.966; IC50 [4]: > 20000 nM; AUC [5]: 0.969; IC50 [5]: > 10000 nM; AUC [6]: 0.922; IC50 [6]: > 2000 nM; AUC [7]: 0.905; IC50 [7]: > 10000 nM; AUC [8]: 0.551; IC50 [8]: 240 nM; AUC [9]: 0.498; IC50 [9]: 315 nM; AUC [10]: 0.7; IC50 [10]: 6720 nM

**Q.** “NCI-H1437 (lung adenocarcinoma, adherent)” was tested. Which AUC [1, 11] did it give?
**A.** 0.985

**Q.** And the IC50 [1, 11]?
**A.** > 1000 nM

**Q.** What about the AUC [1, 12] of the same cell line?
**A.** 0.585

**Q.** And the IC50 [1, 12]?
**A.** 276 nM

**Q.** What about the AUC [2] of the same cell line?
**A.** 0.738

**Q.** What about the IC50 [2] of the same cell line?
**A.** 39.7 nM

**Q.** And the AUC [3]?
**A.** 0.897

**Q.** What about the IC50 [3] of the same cell line?
**A.** > 1020 nM

**Q.** And the AUC [4]?
**A.** 0.955

**Q.** And the IC50 [4]?
**A.** > 20000 nM

**Q.** What about the AUC [5] of the same cell line?
**A.** 0.974

**Q.** And the IC50 [5]?
**A.** > 10000 nM

**Q.** What about the AUC [6] of the same cell line?
**A.** 0.97

**Q.** And the IC50 [6]?
**A.** > 2000 nM

**Q.** And the AUC [7]?
**A.** 0.863

**Q.** What about the IC50 [7] of the same cell line?
**A.** 9200 nM

**Q.** What about the AUC [8] of the same cell line?
**A.** 0.908

**Q.** What about the IC50 [8] of the same cell line?
**A.** > 2560 nM

**Q.** And the AUC [9]?
**A.** 0.055

**Q.** What about the IC50 [9] of the same cell line?
**A.** < 20 nM

**Q.** What about the AUC [10] of the same cell line?
**A.** 0.567

**Q.** What about the IC50 [10] of the same cell line?
**A.** 1920 nM

**Q.** With “NCI-H1651 (lung adenocarcinoma, adherent)” as the cell line, how does the AUC [1, 11] read?
**A.** 0.983

**Q.** What about the IC50 [1, 11] of the same cell line?
**A.** > 1000 nM

**Q.** And the AUC [1, 12]?
**A.** 0.868

**Q.** And the IC50 [1, 12]?
**A.** > 2560 nM

**Q.** And the AUC [2]?
**A.** 0.984

**Q.** What about the IC50 [2] of the same cell line?
**A.** > 128 nM

**Q.** And the AUC [3]?
**A.** 0.977

**Q.** And the IC50 [3]?
**A.** > 1020 nM

**Q.** What about the AUC [4] of the same cell line?
**A.** 0.975

**Q.** What about the IC50 [4] of the same cell line?
**A.** > 20000 nM

**Q.** And the AUC [5]?
**A.** 0.98

**Q.** And the IC50 [5]?
**A.** > 10000 nM

**Q.** And the AUC [6]?
**A.** 0.969

**Q.** And the IC50 [6]?
**A.** > 2000 nM

**Q.** And the AUC [7]?
**A.** 0.768

**Q.** And the IC50 [7]?
**A.** 4020 nM

**Q.** What about the AUC [8] of the same cell line?
**A.** 0.886

**Q.** What about the IC50 [8] of the same cell line?
**A.** > 2560 nM

**Q.** What about the AUC [9] of the same cell line?
**A.** 0.042

**Q.** What about the IC50 [9] of the same cell line?
**A.** < 20 nM

**Q.** And the AUC [10]?
**A.** 0.508

**Q.** And the IC50 [10]?
**A.** 1320 nM

**Q.** How did the AUC [1, 11] turn out when “NCI-H1703 (lung adenocarcinoma, adherent)” was run?
**A.** 0.979

**Q.** What about the IC50 [1, 11] of the same cell line?
**A.** > 1000 nM

**Q.** What about the AUC [1, 12] of the same cell line?
**A.** 0.903

**Q.** What about the IC50 [1, 12] of the same cell line?
**A.** > 2560 nM

**Q.** What about the AUC [2] of the same cell line?
**A.** 0.664

**Q.** What about the IC50 [2] of the same cell line?
**A.** 25.4 nM

**Q.** And the AUC [3]?
**A.** 0.959

**Q.** And the IC50 [3]?
**A.** > 1020 nM

**Q.** And the AUC [4]?
**A.** 0.919

**Q.** And the IC50 [4]?
**A.** > 20000 nM

**Q.** And the AUC [5]?
**A.** 0.934

**Q.** And the IC50 [5]?
**A.** > 10000 nM

**Q.** What about the AUC [6] of the same cell line?
**A.** 0.535

**Q.** And the IC50 [6]?
**A.** 160 nM

**Q.** And the AUC [7]?
**A.** 0.869

**Q.** And the IC50 [7]?
**A.** > 10000 nM

**Q.** And the AUC [8]?
**A.** 0.968

**Q.** And the IC50 [8]?
**A.** > 2560 nM

**Q.** What about the AUC [9] of the same cell line?
**A.** 0.155

**Q.** What about the IC50 [9] of the same cell line?
**A.** 20.6 nM

**Q.** What about the AUC [10] of the same cell line?
**A.** 0.816

**Q.** What about the IC50 [10] of the same cell line?
**A.** 14300 nM

**Q.** What does the source list for “NCI-H1792 (lung adenocarcinoma, adherent)”?
**A.** AUC [1, 11]: 0.987; IC50 [1, 11]: > 1000 nM; AUC [1, 12]: 0.938; IC50 [1, 12]: > 2560 nM; AUC [2]: 0.955; IC50 [2]: > 128 nM; AUC [3]: 0.978; IC50 [3]: > 1020 nM; AUC [4]: 0.99; IC50 [4]: > 20000 nM; AUC [5]: 0.99; IC50 [5]: > 10000 nM; AUC [6]: 0.984; IC50 [6]: > 2000 nM; AUC [7]: 0.917; IC50 [7]: > 10000 nM; AUC [8]: 0.955; IC50 [8]: > 2560 nM; AUC [9]: 0.371; IC50 [9]: 147 nM; AUC [10]: 0.668; IC50 [10]: 3490 nM
